The campaign covered roughly 390,000 compounds. About 17,000 (4.4%) were called active. Inconclusive results, whose numbers are uncertain, are shown with a selection of clear calls. The call rests on the fitted dose curve; in most records, active means well fitted inhibition curve with a large enough effect; inconclusive means small, poorly fitted or top-dose-only effect; inactive means no such curve, though single readings can be large or run the other way. A potency beside an inconclusive call is a rough fit, not a confirmed value.
molecular target: Lysine-specific demethylase 4A (Homo sapiens) (UniProt O75164); assay: qHTS Assay for Inhibitors of JMJD2A-Tudor Domain; details: AlphaScreen JMJD2A-Tudor / H3K4me3 peptide binding; activity change, negative = inhibition: at 114 µM (top of the series); further: nearly all actives have a fitted effect of over 50% in size
On the % scale 0 is the no-effect control and ±100 the full control effect; potency means the concentration at half of the fitted maximal effect; tags describe the fitted curve by direction and shape.

Sequence of UniProt O75164 (O75164 whole entry, looked up, the tested form may be a part): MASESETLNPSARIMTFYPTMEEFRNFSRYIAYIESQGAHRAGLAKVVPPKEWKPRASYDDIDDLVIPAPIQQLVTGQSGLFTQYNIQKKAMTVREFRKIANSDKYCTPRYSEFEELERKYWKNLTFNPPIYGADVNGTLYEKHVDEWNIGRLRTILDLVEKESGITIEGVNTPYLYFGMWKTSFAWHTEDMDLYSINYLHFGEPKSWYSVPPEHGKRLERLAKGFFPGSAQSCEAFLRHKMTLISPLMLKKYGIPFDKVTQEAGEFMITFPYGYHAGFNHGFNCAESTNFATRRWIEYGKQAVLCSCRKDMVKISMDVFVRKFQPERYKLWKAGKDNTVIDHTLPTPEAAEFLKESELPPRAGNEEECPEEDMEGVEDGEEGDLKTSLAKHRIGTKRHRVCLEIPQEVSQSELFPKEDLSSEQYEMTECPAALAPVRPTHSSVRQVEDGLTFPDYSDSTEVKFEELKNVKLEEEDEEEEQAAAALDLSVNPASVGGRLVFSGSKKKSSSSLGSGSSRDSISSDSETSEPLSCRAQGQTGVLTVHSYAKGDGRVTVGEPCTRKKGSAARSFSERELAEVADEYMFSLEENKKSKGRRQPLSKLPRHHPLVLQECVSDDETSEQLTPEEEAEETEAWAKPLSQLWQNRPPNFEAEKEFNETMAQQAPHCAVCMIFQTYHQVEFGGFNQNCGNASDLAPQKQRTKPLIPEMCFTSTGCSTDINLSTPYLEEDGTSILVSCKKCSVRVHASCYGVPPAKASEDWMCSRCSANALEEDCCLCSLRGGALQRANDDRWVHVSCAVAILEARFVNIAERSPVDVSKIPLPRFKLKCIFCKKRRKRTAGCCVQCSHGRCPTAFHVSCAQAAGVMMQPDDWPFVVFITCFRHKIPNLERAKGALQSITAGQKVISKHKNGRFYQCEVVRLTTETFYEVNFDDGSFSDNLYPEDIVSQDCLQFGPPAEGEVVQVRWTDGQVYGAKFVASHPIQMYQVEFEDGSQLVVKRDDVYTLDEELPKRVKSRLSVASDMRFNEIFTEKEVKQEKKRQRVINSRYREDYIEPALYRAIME

Row | Compound | Potency | activity change, negative = inhibition
1 | CC(=O)NNC(=O)c1csc(-c2csc(C)n2)n1 | inconclusive: 2.82 µM [inhibitor, full curve, poor fit] | 
2 | C/C(CC1CC(COCCC(C)C)OC1=O)=N\NC(N)=S (stereo not drawn) | inconclusive: 31.6 µM [inhibitor, partial curve] | 
3 | CC(C)CNCC1OCc2ccccc2CO1 | inactive | 
4 | CCNc1nc(NC(C)(C)C)nc(N(CC)n2cnnc2)n1 | inactive | 
5 | CCOc1ccc(NC(C)=O)cc1 | inactive | 
6 | c1c[nH]c(CN2CCN(Cc3ncc[nH]3)CC2)n1 | active: 14.1 µM | 
7 | CC/C(=N\Nc1ccnc2cc(Cl)ccc12)c1ccc(O)cc1 | inconclusive: 50.1 µM [inhibitor, partial curve] | 
8 | COC(=O)c1ccccc1OCCCCN1CC(C)OC(C)C1 (stereo not drawn) | active: 1.78 µM | 
9 | Cc1ccc(OCc2ccoc2C(=O)O)cc1C | inconclusive: 89.1 µM [inhibitor, single point] | 
10 | CCN1C(=O)/C(=C\c2cccc(OC(=O)c3ccco3)c2)SC1=S | inconclusive: 1 µM [inhibitor, full curve] | 
11 | CC1(C)Cc2c(C#N)c(NCC3CCCO3)nc(-c3ccco3)c2CO1 (stereo not drawn) | inactive | 
12 | Cc1ccc2sc(N(CCN(C)C)C(=O)c3ccc4ccccc4c3)nc2c1C | inconclusive: 1 µM [inhibitor, full curve, poor fit] | 
13 | O=C(/C(=C/O)N=Nc1ccc(Cl)cc1)c1ccncc1 | inconclusive: 56.2 µM [inhibitor, partial curve] | 
14 | c1ccc(CCc2nn3c(C4COc5ccccc5O4)nnc3s2)cc1 (stereo not drawn) | inconclusive: 63.1 µM [inhibitor, partial curve, poor fit] | 
15 | COC(=O)CNc1ccc2c(c1)OCO2 | inconclusive: 79.4 µM [inhibitor, single point] | 
16 | O=C(Cn1cc2c(n1)CCCCC2)NCc1ccccc1 | inactive | 
17 | Cc1c(C(=O)Nc2ccc(S(=O)(=O)N(C)C3CCN(C)CC3)cc2)oc2c(Cl)cccc12 | inconclusive: 79.4 µM [inhibitor, partial curve] | 
18 | CNc1ccc2c3c(cccc13)C(=O)N(C)C2=O | inactive | 
19 | Cc1ccc(N2CCN(c3c(CN4CCCC4)c(=O)oc4ccccc34)CC2)c(C)c1 | inconclusive: 8.91 µM [inhibitor, partial curve] | 
20 | Cc1ccc(-c2nc(SCC(=O)N3CCc4ccccc43)c3c(=O)n(C)c(=O)n(C)c3n2)cc1 | inactive | 
21 | C/C(=N\Nc1cccc(C(=O)O)c1)c1cc2ccccc2o1 | inconclusive: 79.4 µM [inhibitor, single point] | 
22 | Nc1ccc2c(c1)Cc1cc(N)c(Br)cc1-2 | active: 50.1 µM | 
23 | CCOC(=O)Cc1csc(NC(=O)c2cc(=O)c3ccccc3o2)n1 | inactive | 
24 | Cc1ccc(S(=O)(=O)n2nc(C)c(S(=O)(=O)N3CCC(C)CC3)c2C)cc1 | active: 79.4 µM | 

Row | Compound | Potency | activity change, negative = inhibition
25 | Cc1cc(NS(=O)(=O)c2ccc(NC(=O)c3ccco3)cc2)nc(C)n1 | inactive | 
26 | Cc1ccc(C)c(S(=O)(=O)ON2C(=O)c3ccccc3C2=O)c1 | inconclusive: 89.1 µM [inhibitor, single point] | 
27 | Cc1ccc(-c2c[n+](CC(=O)Nc3nc(-c4ccccc4)cs3)c3n2CCC3)cc1 | inactive | 
28 | CCc1ccc(NC(=O)CSc2ccc(-c3ccco3)nn2)cc1 | inconclusive: 25.1 µM [inhibitor, partial curve] | 
29 | CCNc1nc(NCC)nc(OCCOC(=O)Nc2ccccc2)n1 | inactive | 
30 | Cc1cccc(N2CCN(CCCNC(=O)c3sc4ncccc4c3-n3cccc3)CC2C)c1 (stereo not drawn) | inconclusive: 44.7 µM [inhibitor, partial curve] | 
31 | Cc1cc(C)c(S(=O)(=O)/N=C2\C=C(NS(=O)(=O)c3ccccc3)C(=O)c3ccccc32)c(C)c1 | active: 12.6 µM | 
32 | COc1ccc(/C=N/Nc2nc(=O)[nH]nc2C)cc1[N+](=O)[O-] |  | inconclusive: -94.6% [inhibitor]
33 | COc1ccc(C(=S)N2CCOCC2)cc1OC(=O)c1cc(OC)c(OC)c(OC)c1 | inconclusive: 63.1 µM [inhibitor, partial curve, poor fit] | 
34 | CCc1ccc2[nH]c(=O)c(CN(CCCN3CCOCC3)C(=O)Nc3cccc(Cl)c3)cc2c1 | inconclusive: 79.4 µM [inhibitor, single point] | 
35 | Cc1ccc(NC(=O)CN2C(=O)CCn3nc(-c4cccn4C)cc32)c(Cl)c1 | inconclusive: 79.4 µM [inhibitor, partial curve] | 
36 | CN(C)c1ccc(NC(=O)CN2C(=O)c3ccccc3Sc3ccc(C(=O)N4CCCC4)cc32)cc1 | inconclusive: 50.1 µM [inhibitor, partial curve] | 
37 | CC1(c2ccccc2)NC(=O)N(CC(=O)NNC(=O)c2ccccc2)C1=O (stereo not drawn) | inactive | 
38 | Cc1ccc(C(=O)O)cc1-c1ccc(/C=C2\SC(=O)N(CC(=O)Nc3ccc4c(c3)OCO4)C2=O)o1 | active: 35.5 µM | 
39 | CCn1c(SCC(=O)Nc2sc3c(c2C#N)CCCC3)nnc1-c1ccncc1 | inconclusive: 70.8 µM [inhibitor, single point] | 
40 | O/N=C1/CCCCC1c1ccccn1 (stereo not drawn) | active: 31.6 µM | 
41 | Cc1ccc(CNC(=O)Cn2c(=O)ccc3cc(S(=O)(=O)N4CCCC4)ccc32)cc1 | inactive | 
42 | Cc1ccc(S(=O)(=O)Nc2cc3c(C(=O)O)c(C)oc3c3ccccc23)c(C)c1 | inconclusive: 50.1 µM [inhibitor, partial curve] | 
43 | N#CC1=C2Nc3ccccc3N2C(=O)NC1(c1ccccc1)C(F)(F)F (stereo not drawn) | active: 56.2 µM | 
44 | O=C(CCCN=C1NS(=O)(=O)c2ccccc21)Nc1ccc(Cl)cc1 | inactive | 
45 | Cc1ccc(S(=O)(=O)N2CCCCC2)cc1NC(=O)COC(=O)C1CC2C=CC1C2 (stereo not drawn) | inactive | 
46 | c1ccc(CN2CCC(N3CCC(N4CCCCCC4)CC3)CC2)cc1 | active: 1.41 µM | 
47 | Cc1csc(NC(=O)c2cccnc2Cl)n1 | inactive | 
48 | CC(C)N(C(=O)[C@H]1C[C@H](CC(=O)NCCCN(C)C)C(=O)N2CCc3c([nH]c4cc(-c5ccco5)ccc34)[C@]12C)C(C)C | inconclusive: 39.8 µM [inhibitor, full curve, poor fit] | 

Source: PubChem BioAssay AID504339 (National Center for Advancing Translational Sciences (NCATS), 2011)
